According to the supplement of paper PMC10369915:
The list shows a part of the results. No stated cut-off is given here; in the data, active = 3.2 or more and inactive = the rest. Only a few entries rise above the background.

B1: MYO1D_Y585_R588H (peptide)
chain: ASKEPYYVHCI
B2: MYO1D_Y586_YF (peptide)
chain: SKEPFYVRCIK
B3: MYO3A_Y1396_H1400Y (peptide)
chain: HNLYSYPTKYE
B4: MYO3A_Y1396_H1400Y_YF (peptide)
chain: HNLFSYPTKFE
B5: MYO3A_Y1396_YF (peptide)
chain: HNLFSYPTKHE
B6: MYO3B_Y993 (peptide)
chain: IRRQGYSHRIL
B7: MYO5A_Y1245 (peptide)
chain: PGAPAYRVLME
B8: MYO5A_Y1245_R1246C (peptide)
chain: PGAPAYCVLME
B9: MYO5C_Y526_L522P (peptide)
chain: WPQKLYNNFVN
B10: MYO5C_Y633 (peptide)
chain: FRSSLYLLMET
B11: MYO7A_Y1668_S1666C (peptide)
chain: PTDCVYVMPTV
B12: MYO7A_Y2136_G2137E (peptide)
chain: IAINKYEVSLI
B13: MYO9A_Y203_Y203C_YF (peptide)
chain: KFVKMCDNHQL
B14: MYOC_Y479 (peptide)
chain: SSMIDYNPLEK
B15: MYOC_Y479_P481T (peptide)
chain: SSMIDYNTLEK
B16: MYOF_Y1137_V1136I (peptide)
chain: NFDRIYIYHLR
B17: MYOF_Y1137_YF (peptide)
chain: NFDRVYIFHLR
B18: MYOF_Y1705 (peptide)
chain: YGGRDYSLDEF
B19: MYOF_Y1705_G1701A_YF (peptide)
chain: FAGRDYSLDEF
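Further: displayed peptides selected on beads carrying the immobilized SH2 domain, with library peptides lacking any tyrosine serving as negative controls.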

Each binder was assayed against SHP2 C-SH2 domain E139D (assay: enrichment score (SH2-bound / input frequency) (ratio); bacterial display of known human phosphotyrosine sites (pTyr-Var adds point mutants) read by sequencing; higher = stronger binding; tyrosines were phosphorylated by kinases first). Details: peptide library: pTyr-Var.
B1 was tested, and the enrichment score was inactive: 0.76.
With B2 the enrichment score was inactive: 0.562.
B3 was tested, and the enrichment score was inactive: 0.937.
In the case of B4, the enrichment score is reported as inactive: 1.87.
For B5, the enrichment score was inactive: 1.58.
B6 was tested, and the enrichment score was inactive: 0.265.
B7 was tested, and the enrichment score was inactive: 0.763.
For B8, the enrichment score was inactive: 0.935.
For B9, the enrichment score was inactive: 0.895.
With B10 the enrichment score was active: 3.9.
B11 was tested, and the enrichment score was inactive: 0.86.
B12 was tested, and the enrichment score was inactive: 1.42.
In the case of B13, the enrichment score is reported as inactive: 0.813.
For B14, the enrichment score was inactive: 0.576.
B15 was tested, and the enrichment score was inactive: 0.601.
In the case of B16, the enrichment score is reported as inactive: 1.97.
For B17, the enrichment score was active: 3.29.
B18 was tested, and the enrichment score was inactive: 0.96.
For B19, the enrichment score was inactive: 1.03.

The binders below were run against SHP2 C-SH2 domain wild-type in the same assay as above. Details: peptide library: pTyr-Var.
For B1, the enrichment score was inactive: 0.897.
With B2 the enrichment score was inactive: 0.717.
B3 was tested, and the enrichment score was inactive: 0.893.
With B4 the enrichment score was inactive: 1.21.
With B5 the enrichment score was inactive: 1.22.
With B6 the enrichment score was inactive: 0.278.
With B7 the enrichment score was inactive: 0.734.
B8 was tested, and the enrichment score was inactive: 1.61.
In the case of B9, the enrichment score is reported as inactive: 1.23.
In the case of B10, the enrichment score is reported as active: 3.65.
B11 was tested, and the enrichment score was inactive: 1.15.
In the case of B12, the enrichment score is reported as inactive: 1.08.
B13 was tested, and the enrichment score was inactive: 0.641.
B14 was tested, and the enrichment score was inactive: 0.727.
B15 was tested, and the enrichment score was inactive: 0.533.
For B16, the enrichment score was inactive: 3.09.
For B17, the enrichment score was inactive: 2.62.
B18 was tested, and the enrichment score was inactive: 0.81.
In the case of B19, the enrichment score is reported as inactive: 0.822.

What follows are binders tested against SHP2 N-SH2 domain L43F in the same assay as above. Details: peptide library: pTyr-Var.
B1 was tested, and the enrichment score was inactive: 0.93.
With B2 the enrichment score was inactive: 0.616.
In the case of B3, the enrichment score is reported as inactive: 0.851.
For B4, the enrichment score was inactive: 1.43.
In the case of B5, the enrichment score is reported as inactive: 1.73.
With B6 the enrichment score was inactive: 0.245.
B7 was tested, and the enrichment score was inactive: 0.626.
B8 was tested, and the enrichment score was inactive: 0.916.
With B9 the enrichment score was inactive: 0.853.
With B10 the enrichment score was active: 3.41.
B11 was tested, and the enrichment score was inactive: 1.11.
With B12 the enrichment score was inactive: 1.29.
For B13, the enrichment score was inactive: 0.706.
For B14, the enrichment score was inactive: 0.548.
With B15 the enrichment score was inactive: 0.424.
With B16 the enrichment score was active: 4.2.
With B17 the enrichment score was inactive: 2.91.
For B18, the enrichment score was inactive: 0.829.
In the case of B19, the enrichment score is reported as inactive: 0.947.

These binders were tested against SHP2 N-SH2 domain T42A in the same assay as above. Details: peptide library: pTyr-Var.
B1 was tested, and the enrichment score was inactive: 0.845.
B2 was tested, and the enrichment score was inactive: 0.58.
B3 was tested, and the enrichment score was inactive: 0.712.
For B4, the enrichment score was inactive: 1.76.
B5 was tested, and the enrichment score was inactive: 1.78.
B6 was tested, and the enrichment score was inactive: 0.291.
For B7, the enrichment score was inactive: 0.996.
For B8, the enrichment score was inactive: 0.991.
With B9 the enrichment score was inactive: 1.07.
In the case of B10, the enrichment score is reported as inactive: 3.14.
B11 was tested, and the enrichment score was inactive: 0.861.
In the case of B12, the enrichment score is reported as inactive: 1.25.
In the case of B13, the enrichment score is reported as inactive: 0.757.
In the case of B14, the enrichment score is reported as inactive: 0.622.
B15 was tested, and the enrichment score was inactive: 0.577.
For B16, the enrichment score was inactive: 2.13.
For B17, the enrichment score was inactive: 2.64.
For B18, the enrichment score was inactive: 0.632.
In the case of B19, the enrichment score is reported as inactive: 0.819.

The binders below were run against SHP2 N-SH2 domain T52S in the same assay as above. Details: peptide library: pTyr-Var.
In the case of B1, the enrichment score is reported as inactive: 0.831.
For B2, the enrichment score was inactive: 0.507.
For B3, the enrichment score was inactive: 0.729.
With B4 the enrichment score was inactive: 1.66.
In the case of B5, the enrichment score is reported as inactive: 1.79.
With B6 the enrichment score was inactive: 0.284.
B7 was tested, and the enrichment score was inactive: 0.688.
For B8, the enrichment score was inactive: 0.904.
For B9, the enrichment score was inactive: 1.2.
With B10 the enrichment score was inactive: 2.47.
For B11, the enrichment score was inactive: 0.933.
For B12, the enrichment score was inactive: 1.13.
With B13 the enrichment score was inactive: 0.887.
With B14 the enrichment score was inactive: 0.567.
With B15 the enrichment score was inactive: 0.704.
In the case of B16, the enrichment score is reported as active: 5.2.
In the case of B17, the enrichment score is reported as inactive: 2.33.
With B18 the enrichment score was inactive: 0.75.
In the case of B19, the enrichment score is reported as inactive: 0.779.

Each binder was assayed against SHP2 N-SH2 domain wild-type in the same assay as above. Details: peptide library: pTyr-Var.
For B1, the enrichment score was inactive: 0.968.
For B2, the enrichment score was inactive: 0.937.
For B3, the enrichment score was inactive: 0.723.
In the case of B4, the enrichment score is reported as inactive: 1.36.
For B5, the enrichment score was inactive: 1.48.
For B6, the enrichment score was inactive: 0.351.
For B7, the enrichment score was inactive: 0.767.
In the case of B8, the enrichment score is reported as inactive: 1.33.
With B9 the enrichment score was inactive: 1.01.
B10 was tested, and the enrichment score was active: 3.55.
For B11, the enrichment score was inactive: 1.5.
In the case of B12, the enrichment score is reported as inactive: 1.35.
B13 was tested, and the enrichment score was inactive: 0.784.
B14 was tested, and the enrichment score was inactive: 0.554.
For B15, the enrichment score was inactive: 0.586.
In the case of B16, the enrichment score is reported as inactive: 2.49.
With B17 the enrichment score was inactive: 2.58.
In the case of B18, the enrichment score is reported as inactive: 0.755.
In the case of B19, the enrichment score is reported as inactive: 1.13.
